Where “and” joins values, the source holds several entries; their conditions need not be identical. Equal values may be shown once. Screen size: about 270,000 compounds; about 5,800 (2.1%) were called active. Inconclusive results, whose numbers are uncertain, are shown with a selection of clear calls. Calls come from the whole dose curve; as a rule, active = well fitted inhibition curve with a large enough effect; inconclusive = small, poorly fitted or top-dose-only effect; inactive = flat fitted curve, though single readings scatter. Potencies of inconclusive entries are doubtful fits and often do not repeat.
Target: Microtubule-associated protein tau (Homo sapiens) (UniProt P10636)
Chain of UniProt P10636 (P10636 whole entry, looked up): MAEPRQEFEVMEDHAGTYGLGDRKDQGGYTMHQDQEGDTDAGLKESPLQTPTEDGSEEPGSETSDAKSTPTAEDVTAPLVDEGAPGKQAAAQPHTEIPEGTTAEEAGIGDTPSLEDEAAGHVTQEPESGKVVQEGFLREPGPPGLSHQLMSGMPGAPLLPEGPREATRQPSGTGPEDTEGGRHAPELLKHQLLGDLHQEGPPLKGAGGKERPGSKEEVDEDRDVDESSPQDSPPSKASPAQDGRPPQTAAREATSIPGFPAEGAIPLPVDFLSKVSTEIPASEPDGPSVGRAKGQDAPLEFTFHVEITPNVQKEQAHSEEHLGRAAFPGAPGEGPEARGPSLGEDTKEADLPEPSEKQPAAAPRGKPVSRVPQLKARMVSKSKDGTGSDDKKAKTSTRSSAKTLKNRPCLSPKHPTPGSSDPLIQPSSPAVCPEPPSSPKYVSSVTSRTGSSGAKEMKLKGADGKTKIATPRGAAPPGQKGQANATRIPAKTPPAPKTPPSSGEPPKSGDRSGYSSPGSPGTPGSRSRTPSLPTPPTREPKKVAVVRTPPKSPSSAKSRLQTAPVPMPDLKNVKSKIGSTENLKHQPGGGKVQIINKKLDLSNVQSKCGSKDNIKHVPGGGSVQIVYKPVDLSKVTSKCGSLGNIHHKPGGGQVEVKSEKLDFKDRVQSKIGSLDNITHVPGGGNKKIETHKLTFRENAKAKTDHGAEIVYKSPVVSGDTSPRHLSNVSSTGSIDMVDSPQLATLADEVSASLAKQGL
Assay: qHTS for Inhibitors of Tau Fibril Formation, Thioflavin T Binding; note: nearly all actives have a fitted effect of over 55% in size
Details: recombinant tau K18 P301L (four-repeat tau fragment), heparin-induced fibrillization, ThT fluorescence; series mostly up to 57.4 µM
Summary of the method: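 Aggregation was driven by heparin (20 uM final) acting on recombinant tau […] bearing P301L in 100 mM sodium acetate pH 7; fibrils were detected with Thioflavin T.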
Potency is the fitted concentration of half-maximal effect; tags give direction and shape of the fitted curve.

Row | Structure (SMILES) | Potency
1 | N#Cc1cc([N+](=O)[O-])c(-n2nnc3ccccc32)c([N+](=O)[O-])c1 | inconclusive: 39.8 µM [inhibitor, single point]
2 | O=C(NC(=S)Nc1ccc2[nH]ncc2c1)c1ccccc1 | inconclusive: 20 µM [inhibitor, partial curve]
3 | O=C(Nc1ccc2c(c1)OCO2)c1cc2ncc(Br)cn2n1 | inconclusive: 31.6 µM [inhibitor, partial curve, poor fit]
4 | Cc1cc(C)cc(NC(=O)CSc2nnc(-c3ccccc3)n2N)c1 | inactive
5 | COc1cc(C(N)=O)ccc1OCc1ccccc1 | inactive
6 | O=C(N1CCCCCC1)n1c(Cc2ccccc2)nc2ccccc21 | inactive
7 | COc1cccc(-c2nc(SCC(=O)Nc3ccc4c(c3)OCCO4)c(-c3ccccc3)[nH]2)c1 | inconclusive: 17.8 µM [inhibitor, partial curve]
8 | O=C(NCCn1cc(SCc2ccc(Cl)cc2)c2ccccc21)c1cccs1 | inconclusive: 10 µM [inhibitor, partial curve]
9 | O=c1[nH]c2cc(NCCO)c([N+](=O)[O-])cc2[nH]1 | inconclusive: 20 µM [inhibitor, partial curve, poor fit]
10 | Oc1ccccc1C1=Nc2nc3ccccc3n2C(c2ccccc2)C1 (stereo not drawn) | inconclusive: 28.2 µM [inhibitor, partial curve]
11 | O=C(NC(NC(=S)Nc1c(Cl)cc(Cl)cc1Cl)C(Cl)(Cl)Cl)OCc1ccccc1 (stereo not drawn) | inactive
12 | Cc1nnc(NC(=O)c2ccc3c(c2)OCO3)s1 | inconclusive: 5.62 µM [inhibitor, partial curve]
13 | Oc1cc2c(c(Cl)c1O)CCNC[C@H]2c1ccccc1 | inconclusive: 31.6 µM [inhibitor, partial curve]
14 | CCOc1ccc(N2C(=O)CC(N3CCOCC3)C2=O)cc1 (stereo not drawn) | inactive
15 | O=C(Nc1ccc(C(=O)Nc2ccc(C(=O)Nc3ccc(S(=O)(=O)O)c4cc(S(=O)(=O)O)cc(S(=O)(=O)O)c34)cc2)cc1)Nc1ccc(C(=O)Nc2ccc(C(=O)Nc3ccc(S(=O)(=O)O)c4cc(S(=O)(=O)O)cc(S(=O)(=O)O)c34)cc2)cc1 | inconclusive: 15.8 µM [activator, partial curve] and inconclusive: 3.16 µM [activator, full curve]
16 | Cc1cccc(NC(=O)c2ccc(-n3cccn3)c([N+](=O)[O-])c2)c1 | active: 6.31 µM
17 | COc1c(O)c2c(=O)cc(OC)c3c4c(OC)cc(=O)c5c(O)c(OC)c(C[C@@H](C)OC(=O)c6ccccc6)c(c(c1C[C@@H](C)OC(=O)Oc1ccc(O)cc1)c23)c54 | inactive
18 | c1ccc(Cc2nnc3sc(-c4cccs4)nn23)cc1 | inactive
19 | Cc1ccc(-c2noc(/C=C/c3ccccc3)n2)cc1 | inconclusive: 3.98 µM [inhibitor, partial curve]
20 | COc1ccc(/C=C/c2cc(-c3ccc(C)cc3)o[n+]2C)cc1 | inconclusive: 31.6 µM [inhibitor, single point]
21 | Cc1nnc(SCc2ccc3c(c2)OCO3)s1 | inactive
22 | O=C(Nc1nn[nH]n1)c1ccc(S(=O)(=O)N2CCCCC2)cc1 | inactive
23 | COc1ccc(NC(=S)Nc2ccccc2OC)c(OC)c1 | inactive

Row | Structure (SMILES) | Potency
24 | COc1ccc2oc(-c3ccccc3)c(OC)c(=O)c2c1 | inconclusive: 39.8 µM [inhibitor, single point]
25 | CN(C(=O)c1coc(=O)c2ccccc12)c1ccccc1Cl | inactive
26 | O=C1CCN(C(=O)Nc2ccccc2)N1 | inconclusive: 25.1 µM [inhibitor, partial curve]
27 | CCOc1ccccc1N/C(=C(/C(Cl)=C(Cl)Cl)[N+](=O)[O-])n1cncn1 | inconclusive: 15.8 µM [inhibitor, partial curve]
28 | CCOc1ccc(N)cc1OC | inconclusive: 15.8 µM [inhibitor, partial curve]
29 | Cc1ccc(-c2noc(-c3ccccc3NC(=O)c3ccccc3)n2)cc1 | inconclusive: 8.91 µM [inhibitor, full curve]
30 | CS(=O)(=O)N(CC(=O)NCc1ccncc1)Cc1ccc(Cl)cc1 | inactive
31 | O=C(NC1CCCCC1)N(CCN1CCCC1)Cc1cc2cc3c(cc2[nH]c1=O)OCCO3 | inconclusive: 31.6 µM [inhibitor, single point]
32 | CCOC(=O)C(=NCCCN(C)C)NNc1cc(C(F)(F)F)ccc1Cl | inconclusive: 35.5 µM [inhibitor, single point]
33 | COC(=O)c1ccc(NC(=O)CC2C(=O)N(c3cccc(OC)c3)C(=O)N2Cc2cccs2)cc1 (stereo not drawn) | inactive
34 | C=CCSc1nnc2c(n1)[nH]c1c(C)cccc12 | inactive
35 | Cc1[nH]nc2c1C(c1ccc(-c3ccc(Cl)cc3)o1)C(C#N)=C(N)O2 (stereo not drawn) | active: 10 µM
36 | COc1cc(Cl)c(S(=O)(=O)NCCc2c(C)[nH]c3c(C)cccc23)cc1Cl | inconclusive: 28.2 µM [inhibitor, single point]
37 | O=C(Nc1ccc2c(c1)OCO2)c1cccs1 | inactive
38 | O=C(NCCc1csc(-c2ccccc2)n1)c1c(F)cccc1Cl | inactive
39 | COc1ccc(N2CCN(Cc3nc(N)nc(Nc4ccc(C)c(Cl)c4)n3)CC2)cc1 | inconclusive: 20 µM [inhibitor, partial curve]
40 | Cc1ccc(C(=O)/C=C/Nc2ccc3c(c2)OCO3)cc1 | inconclusive: 2.51 µM [inhibitor, full curve]
41 | CC(C)Cn1cc(NC(=O)N2CCN(c3cccc(Cl)c3)CC2)c2ccccc2c1=O | inconclusive: 10 µM [inhibitor, partial curve]
42 | O=C(Nc1cccc([N+](=O)[O-])c1)c1cnccn1 | inconclusive: 28.2 µM [inhibitor, single point]
43 | C/C(=N\NC(=O)c1[nH]c2c([N+](=O)[O-])cc(C)cc2c1-c1ccccc1)c1cccnc1 | inconclusive: 5.62 µM [inhibitor, partial curve, poor fit]
44 | CC(C)c1nc(N2CCN(C(=O)c3ccco3)CC2)c2c3c(sc2n1)CCCC3 | inconclusive: 25.1 µM [inhibitor, single point]
45 | CCOc1ccc2[nH]c(=O)c(C(c3nnnn3Cc3ccco3)N3CCN(C)CC3)cc2c1 (stereo not drawn) | active: 14.1 µM
46 | OCCN1CCN(C(c2cccs2)c2ccc3cccnc3c2O)CC1 (stereo not drawn) | inconclusive: 14.1 µM [inhibitor, partial curve]

Row | Structure (SMILES) | Potency
47 | COc1cccc(-n2c(C)cc(/C=C3/C(=N)N4C(=NC3=O)SN=C4S(C)(=O)=O)c2C)c1 | inconclusive: 28.2 µM [inhibitor, partial curve]
48 | Cc1ccc(Oc2nc(CN3CCOCC3)nc3sc4c(c23)CCC(C)C4)cc1 (stereo not drawn) | inconclusive: 17.8 µM [inhibitor, partial curve]
49 | O=C(NCc1ccccc1)c1ccc(CNS(=O)(=O)c2ccc(Br)cc2)cc1 | inactive
50 | COc1cc(/C=C2/SC(=S)N(CC(=O)Nc3cccnc3)C2=O)cc(OC)c1OC | inconclusive: 11.2 µM [inhibitor, partial curve]
51 | CCCCC[C@H](O)/C=C/C1=C(C/C=C\CCCC(=O)O)C(=O)CC1 | inactive
52 | CCN(CC)c1ccc(N2C(=O)/C(=C\c3cccnc3)SC2=S)cc1 | inconclusive: 2.82 µM [inhibitor, full curve]
53 | CC1CC(=O)c2cnc(NCC3CCCO3)nc2C1 (stereo not drawn) | inactive
54 | CCN(CC)CCOc1ccc2c(c1)C(=NO)c1cc(OCCN(CC)CC)ccc1-2 | inconclusive: 20 µM [inhibitor, single point]
55 | Cc1cc(N2CCOCC2)ccc1/C=C\[N+](=O)[O-] | active: 11.2 µM
56 | C#CCOCCOCCOCCNc1nc(N2CCN(C(=O)[C@H]([C@@H](C)CC)n3cc([C@@H](N)CO)nn3)CC2)nc(N2CCN(C(=O)[C@H](Cc3cc4ccccc4[nH]3)n3cc([C@@H](N)C(C)CC)nn3)CC2)n1 (stereo partly drawn) | inconclusive: 17.8 µM [inhibitor, single point]
57 | COc1ccc(C2=NN(C(C#N)c3ccc(OC)c(OC)c3)C(c3ccccc3)C2)cc1 (stereo not drawn) | inconclusive: 28.2 µM [inhibitor, single point]
58 | CCN(CC)C(=O)Oc1ccc(Br)cc1C(=O)Nc1ccc(F)cc1F | inactive
59 | CC(/C=C/c1ccc2c(c1)OCO2)=N\NC(=O)c1cccc([N+](=O)[O-])c1 | inconclusive: 0.794 µM [inhibitor, full curve]
60 | COc1cccc(C2C(C(=O)Nc3ccc(C)cc3C)=C(C)Nc3c(C(=O)Nc4ccccc4)cnn32)c1 (stereo not drawn) | inconclusive: 17.8 µM [inhibitor, single point]
61 | O=C(Nc1nnc(S(=O)(=O)N2CCCc3ccccc32)s1)c1cccc(Cl)c1 | inconclusive: 11.2 µM [inhibitor, partial curve]
62 | CCc1ccc(NC(=O)CSc2nc(=O)n(Cc3ccccn3)c3c2CCC3)cc1 | inactive
63 | O=C1CC(=O)CC(c2ccco2)C1 | inconclusive: 10 µM [inhibitor, partial curve, poor fit]
64 | CCOc1ccc(N2C(=O)CC(SCc3nc4ccccc4[nH]3)C2=O)cc1 (stereo not drawn) | inconclusive: 17.8 µM [inhibitor, single point]
65 | COc1ccc(Cn2c(C(=O)O)c(CNCc3ccccc3F)c3ccc(OC)cc32)cc1 | inactive
66 | CC(=O)c1ccc(NC(=O)c2nc3ccccc3nc2N2CCCCC2)cc1 | inconclusive: 31.6 µM [inhibitor, single point]
67 | NC(=S)N1OC[C@@H]2COc3ccc4ccccc4c3[C@@H]21 | inactive
68 | COC(=O)c1cccc(Cn2c(Cl)c(/C=N/Nc3ccccc3C)sc2=O)c1 | inconclusive: 28.2 µM [inhibitor, partial curve]

Source: PubChem BioAssay AID1460 (National Center for Advancing Translational Sciences (NCATS), 2008)
